According to the RNAGym collection of RNA variant scans (doi:10.7554/elife.90254):
The source gives no read counts; variants with many changes may rest on few reads.

B1: LINE1-full (parent)
chain: UACGUAGGUGGUUUUCCCCUGAUAGUGCUAAGGGGGCCUGGAAGUUUGGACUGGGCAGAGCUCAACACAGCGUGGCAAAGUGGCUGUGGCUAGACUGCCUCUCUGGAUUCCUCGUCACUCAGCAGGGCAUCUCUGAGAGAAAUGCC

Variants of: B1
Experiment: self-cleavage, relative activity (ratio to wild type); higher = more cleavage; in vitro, sequencing; the parent is a self-cleaving ribozyme

Variant	self-cleavage
UACGUAGGUGGUUUUCCCCUGAUAGUGCUAAGGGGGCCUGGAAGUUUGGACUGGGCAGAGCUCAACACAGCGUGGCAAAGUGGCUGUGGCUAGACUGCCUCUCUGGACUCCUCGUCACUCGGCAGGGCAUCUCUGAGAGAAACGCC [U108C A121G U143C]	2.36
UACGUAGGUGGUUUUCCCCUGAUAGUGCUAAGGGGGCCUGGAAGUUUGGACUGGGCAGAGCUCAACACAGCGUGGCAAAGUGGCUGUGGCUAGACUGCCUCUCUGGGUUCCUCGUCACUCAGCAGGGCAUCUCUGGGAGAAAUGCG [A107G A136G C146G]	1.31
UACGUAGGUGGUUUUCCCCUGAUAGUGCUAAGGGGGCCUGGAAGUUUGGACUGGGCAGAGCUCAACACAGCGUGGCAAAGUGGCUGUGGCUAGACUGCCUCUCCGGAUUCCUCGUCACUCAGCAGGGCAUCUGUGGGAGAAAUGCC [U104C C133G A136G]	1.87
UACGUAGGUGGUUUUCCCCUGAUAGUGCUAAGGGGGCCUGGAAGUUUGGACUGGGCAGAGCUCAACACAGCGUGGCAAAGUGGCUGUGGCUAGACUGCCUCUCUGGACUCCUCGUCACUCAGCAGGGCAUCUCUGAGUGAAAAGCC [U108C A138U U143A]	1.8
UACGUAGGUGGUUUUCCCCUGAUAGUGCUAAGGGGGCCUGGAAGUUUGGACUGGGCAGAGCUCAACACAGCGUGGCAAAGUGGCUGUGGCUAGACUGCCUCUCUGGACUCCUCGUCACUCAGCAGGGCAUCUCUGGGAGAAACGCC [U108C A136G U143C]	2.51
UACGUAGGUGGUUUUCCCCUGAUAGUGCUAAGGGGGCCUGGAAGUUUGGACUGGGCAGAGCUCAACACAGCGUGGCAAAGUGGCUGUGGCUAGACUGCCUCUCUGAAUUCCUCGUCGCUCAGCAGGGCAUCUCUGAGAGAGAUGCC [G106A A117G A141G]	1.22
UACGUAGGUGGUUUUCCCCUGAUAGUGCUAAGGGGGCCUGGAAGUUUGGACUGGGCAGAGCUCAACACAGCGUGGCAAAGUGGCUGUGGCUAGACUGCCUCUCUGGACUCCUCGUCACUCAGCAGGGCUUCUCUGAGAGAGAUGCC [U108C A129U A141G]	1.25
UACGUAGGUGGUUUUCCCCUGAUAGUGCUAAGGGGGCCUGGAAGUUUGGACUGGGCAGAGCUCAACACAGCGUGGCAAAGUGGCUGUGGCUAGACUGCCUCUCUGGACUCCUCGUCACUCAGCAGGGCUUCUCUGAGAGAUAUGCC [U108C A129U A141U]	1.99
UACGUAGGUGGUUUUCCCCUGAUAGUGCUAAGGGGGCCUGGAAGUUUGGACUGGGCAGAGCUCAACACAGCGUGGCAAAGUGGCUGUGGCUAGACUGCCUCUCUGGGUUCCUCGUCACGCAGCUGGGCAUCUCUGAGAGAAAUGCC [A107G U119G A124U]	2.04
UACGUAGGUGGUUUUCCCCUGAUAGUGCUAAGGGGGCCUGGAAGUUUGGACUGGGCAGAGCUCAACACAGCGUGGCAAAGUGGCUGUGGCUAGACUGCCUCUCUGGACUCCUCGACACUCAGCAGGGCAUCUCUGAGAGAAAAGCC [U108C U115A U143A]	2.38
UACGUAGGUGGUUUUCCCCUGAUAGUGCUAAGGGGGCCUGGAAGUUUGGACUGGGCAGAGCUCAACACAGCGUGGCAAAGUGGCUGUGGCUAGACUGCCUCUCUGGACUCCUCGUCACUCGGCAGGGCAUCUCUGAGAGAGAUGCC [U108C A121G A141G]	2.04
UACGUAGGUGGUUUUCCCCUGAUAGUGCUAAGGGGGCCUGGAAGUUUGGACUGGGCAGAGCUCAACACAGCGUGGCAAAGUGGCUGUGGCUAGACUGCCUCUCUGGGUUCCUCGCCACCCAGCAGGGCAUCUCUGAGAGAAAUGCC [A107G U115C U119C]	0.92
UACGUAGGUGGUUUUCCCCUGAUAGUGCUAAGGGGGCCUGGAAGUUUGGACUGGGCAGAGCUCAACACAGCGUGGCAAAGUGGCUGUGGCUAGACUGCCUCUCCGCAUUCCCUGCCACUCAGCAGGGCAUCUCUGAGAGAAAUGCC [U104C G106C U112C C113U U115C]	1.53
UACGUAGGUGGUUUUCCCCUGAUAGUGCUAAGGGGGCCUGGAAGUUUGGACUGGGCAGAGCUCAACACAGCGUGGCAAAGUGGCUGUGGCUAGACUGCCUCUCUUGAUUCCUCGUCACUCAGCAGGGCGUCUCUGAGAGAAGUGCC [G105U A129G A142G]	1.34
UACGUAGGUGGUUUUCCCCUGAUAGUGCUAAGGGGGCCUGGAAGUUUGGACUGGGCAGAGCUCAACACAGCGUGGCAAAGUGGCUGUGGCUAGACUGCCUCUCUGGGUUCCUCGUCACUCAGCAGGGCAACUCUGAGAGAAGUGCC [A107G U130A A142G]	1.27
UACGUAGGUGGUUUUCCCCUGAUAGUGCUAAGGGGGCCUGGAAGUUUGGACUGGGCAGAGCUCAACACAGCGUGGCAAAGUGGCUGUGGCUAGACUGCCUCUCUGGUAUCCUCGUCACUCAGCAGGGCAUCUCAGAGAGAAAUGCC [A107U U108A U134A]	1.23
UACGUAGGUGGUUUUCCCCUGAUAGUGCUAAGGGGGCCUGGAAGUUUGGACUGGGCAGAGCUCAACACAGCGUGGCAAAGUGGCUGUGGCUAGACUGCCUCUCUGGACUCCUCGUCACUCAGUAGGGCAUCUCUGAGAGAAACGCC [U108C C123U U143C]	2.18
UACGUAGGUGGUUUUCCCCUGAUAGUGCUAAGGGGGCCUGGAAGUUUGGACUGGGCAGAGCUCAACACAGCGUGGCAAAGUGGCUGUGGCUAGACUGCCUCUCCGUAUUCCUCGUCACUCAGCGGGGCAUCUCUGAGAGAAAUGCC [U104C G106U A124G]	1.37
UACGUAGGUGGUUUUCCCCUGAUAGUGCUAAGGGGGCCUGGAAGUUUGGACUGGGCAGAGCUCAACACAGCGUGGCAAAGUGGCUGUGGCUAGACUGCCUCUCUGGACUCCUCGUCACUCAGCAGGGCAUCUCUGAGAGAGAAACC [U108C A141G U143A G144A]	1.8
UACGUAGGUGGUUUUCCCCUGAUAGUGCUAAGGGGGCCUGGAAGUUUGGACUGGGCAGAGCUCAACACAGCGUGGCAAAGUGGCUGUGGCUAGACUGCCUCUCUGAAUUCCUCGUCACUCAGCAGGGCAUCUCUGAGAGAGGUGCC [G106A A141G A142G]	1.54

Variant	self-cleavage
UACGUAGGUGGUUUUCCCCUGAUAGUGCUAAGGGGGCCUGGAAGUUUGGACUGGGCAGAGCUCAACACAGCGUGGCAAAGUGGCUGUGGCUAGACUGCCUCUCUGUAUCCCUCGUCACUCUGCAGGGCAUCUCUGAGAGAAAUGCC [G106U U109C A121U]	1.07
UACGUAGGUGGUUUUCCCCUGAUAGUGCUAAGGGGGCCUGGAAGUUUGGACUGGGCAGAGCUCAACACAGCGUGGCAAAGUGGCUGUGGCUAGACUGCCUCUCUGGACUCCUCGUCACUCAGCAGGGCGUUUCUGAGAGAAAUGCC [U108C A129G C131U]	1.53
UACGUAGGUGGUUUUCCCCUGAUAGUGCUAAGGGGGCCUGGAAGUUUGGACUGGGCAGAGCUCAACACAGCGUGGCAAAGUGGCUGUGGCUAGACUGCCUCUCUGGGUUCCUCGUCACUCAGCAGAGCAUCUCUGAGAGAGAUGCC [A107G G126A A141G]	1.4
UACGUAGGUGGUUUUCCCCUGAUAGUGCUAAGGGGGCCUGGAAGUUUGGACUGGGCAGAGCUCAACACAGCGUGGCAAAGUGGCUGUGGCUAGACUGCCUCUCUGGGUUCCUCGUCACUCAGCAGGGCAUCUCUGAGAGAAUUACC [A107G A142U G144A]	1.9
UACGUAGGUGGUUUUCCCCUGAUAGUGCUAAGGGGGCCUGGAAGUUUGGACUGGGCAGAGCUCAACACAGCGUGGCAAAGUGGCUGUGGCUAGACUGCCUCUCUGGGUUCCUCGUCACUCAGCAGGGCAUCUCUGAGGGGAAUGCC [A107G A138G A140G]	2.07
UACGUAGGUGGUUUUCCCCUGAUAGUGCUAAGGGGGCCUGGAAGUUUGGACUGGGCAGAGCUCAACACAGCGUGGCAAAGUGGCUGUGGCUAGACUGCCUCUCUGGAACCCUCGUCACUCAUCAGGGCAUCCCUGAGAGAAAUGCC [U108A U109C G122U U132C]	1.76
UACGUAGGUGGUUUUCCCCUGAUAGUGCUAAGGGGGCCUGGAAGUUUGGACUGGGCAGAGCUCAACACAGCGUGGCAAAGUGGCUGUGGCUAGACUGCCUCUCUGGACACCUCGUCACUCAGCAGGGCAUCUCUGAGAGAAAUGGC [U108C U109A C145G]	1.38
UACGUAGGUGGUUUUCCCCUGAUAGUGCUAAGGGGGCCUGGAAGUUUGGACUGGGCAGAGCUCAACACAGCGUGGCAAAGUGGCUGUGGCUAGACUGCCUCUCUGGUCUCCUCGUCACUCAGCAGGGCAUCUCUGAGAGAGAUGCC [A107U U108C A141G]	1.38
UACGUAGGUGGUUUUCCCCUGAUAGUGCUAAGGGGGCCUGGAAGUUUGGACUGGGCAGAGCUCAACACAGCGUGGCAAAGUGGCUGUGGCUAGACUGCCUCUCCGAAUUCCUCGUCGCUCAGCAGGGCAUCUCUGAGAGAAAUGCC [U104C G106A A117G]	1.8
UACGUAGGUGGUUUUCCCCUGAUAGUGCUAAGGGGGCCUGGAAGUUUGGACUGGGCAGAGCUCAACACAGCGUGGCAAAGUGGCUGUGGCUAGACUGCCUCUCUGGUUUCCUCGCCACUCAGCAGGGCAUCUCUGAGGGAAAUGCC [A107U U115C A138G]	2.1
UACGUAGGUGGUUUUCCCCUGAUAGUGCUAAGGGGGCCUGGAAGUUUGGACUGGGCAGAGCUCAACACAGCGUGGCAAAGUGGCUGUGGCUAGACUGCCUCUCUGAAUUACACGUCACUCAGCAGGGCAUCUCUGAGAGAAAUGCC [G106A C110A U112A]	1.01
UACGUAGGUGGUUUUCCCCUGAUAGUGCUAAGGGGGCCUGGAAGUUUGGACUGGGCAGAGCUCAACACAGCGUGGCAAAGUGGCUGUGGCUAGACUGCCUCUCUAGAUUCUUCGUCACUCAGCAGGUCAUCUCUGAGAGAAAUGCC [G105A C111U G127U]	1.23
UACGUAGGUGGUUUUCCCCUGAUAGUGCUAAGGGGGCCUGGAAGUUUGGACUGGGCAGAGCUCAACACAGCGUGGCAAAGUGGCUGUGGCUAGACUGCCUCUCUGGUUUCCUCGUCACUCAGCAGGGCAUCUCCGAGAGGAAUGCC [A107U U134C A140G]	1.64
UACGUAGGUGGUUUUCCCCUGAUAGUGCUAAGGGGGCCUGGAAGUUUGGACUGGGCAGAGCUCAACACAGCGUGGCAAAGUGGCUGUGGCUAGACUGCCUCUCUGGGUUCCUCGUCACCCAGCAGGGCAUCUCUGAGAGAAGUGCC [A107G U119C A142G]	0.43
UACGUAGGUGGUUUUCCCCUGAUAGUGCUAAGGGGGCCUGGAAGUUUGGACUGGGCAGAGCUCAACACAGCGUGGCAAAGUGGCUGUGGCUAGACUGCCUCUCUGAAUUCCUCGUCACUCAGCAGGGCACCUCUGUGAGAAAUGCC [G106A U130C A136U]	1.44
UACGUAGGUGGUUUUCCCCUGAUAGUGCUAAGGGGGCCUGGAAGUUUGGACUGGGCAGAGCUCAACACAGCGUGGCAAAGUGGCUGUGGCUAGACUGCCUCUCUGGGUUCCUCGUCACUCAGCAGGGCUUCUCCGAGAGAAAUGCC [A107G A129U U134C]	0.5
UACGUAGGUGGUUUUCCCCUGAUAGUGCUAAGGGGGCCUGGAAGUUUGGACUGGGCAGAGCUCAACACAGCGUGGCAAAGUGGCUGUGGCUAGACUGCCUCUCUGGGUUCCUUGUCACUCUGCAGGGCAUCCCUGAGAGAAAUGCC [A107G C113U A121U U132C]	0.83
UACGUAGGUGGUUUUCCCCUGAUAGUGCUAAGGGGGCCUGGAAGUUUGGACUGGGCAGAGCUCAACACAGCGUGGCAAAGUGGCUGUGGCUAGACUGCCUCUCUGGGUACCUCGUCACUCAGCAGGGCAUCUCUGAGAGAGAUGCC [A107G U109A A141G]	1.75
UACGUAGGUGGUUUUCCCCUGAUAGUGCUAAGGGGGCCUGGAAGUUUGGACUGGGCAGAGCUCAACACAGCGUGGCAAAGUGGCUGUGGCUAGACUGCCUCUCCGGAUCCCUCGUCUCUCAGCAGGGCAUCUCUGAGAGAAAUGCC [U104C U109C A117U]	1.8
